The source of these data is publication PMC12136788.

This is one part of the list.

T1: UNK ZnF1-3 (human, UniProt Q9C0B0 31-174)
T1 sequence: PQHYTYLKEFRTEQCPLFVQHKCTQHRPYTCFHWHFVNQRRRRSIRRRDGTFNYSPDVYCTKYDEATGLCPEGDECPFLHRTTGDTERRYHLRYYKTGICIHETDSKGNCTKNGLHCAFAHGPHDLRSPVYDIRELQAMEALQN

B1: 80643647_80643767_1968_CDS_ENSMUSG00000034994_ENSMUST00000047864|mouse|control|control (ssRNA)
RNA: GGGAGUUCUACAGUCCGACGAUCAGCAACGUCCCACUCAUACUUUUCGGCCAGGUAGCGGGCACGUGCCUUGAGCUCCUGGCGGGCAGACACCUCACCCUUAUCGAUGUCCUCUGCCAGGCCAUCAGGGAAGGGCCUGGCCUUCAACAGAGGAUUGAGCAUCA
B2: chr4:43015417:43015418:-_ENSMUSG00000028453_ENSMUST00000030165|mus_mus|FALSE|FALSE (ssRNA)
RNA: GGGAGUUCUACAGUCCGACGAUCAAAGGGUAGGAAUGGGGAUUUUUAUGAGGAACUGCAGUUUAGUCCCCAGAAUCCAACCUACCAAAAAGACAAUGGGAAGGAAGGGGGAGUUAGGGAGACAGGGAAGGCAGACAGAAGACGCAACAGAGGAUUGAGCAUCA
B3: chr2:175094126:175094127:-_ENSG00000138430_ENST00000344357|hu_hu|FALSE|FALSE (ssRNA)
RNA: GGGAGUUCUACAGUCCGACGAUCUCUGCUCUCAUUAGGAUCAAUAGUGCAGAACGGGAAGUUUUCUGCUGAAGCCUGACUAUUGGUUAACACAUUGAAGAAAGUAGAUUUCCGUGCUCGGCCUGGGCGAUGACACGGGGUCCCCAACAGAGGAUUGAGCAUCA
B4: chr12:39763582:39763583:-_ENSG00000139116_ENST00000544797|hu_mus|hu_hu_hu_mus_False|18_48 (ssRNA)
RNA: GGGAGUUCUACAGUCCGACGAUCCUCUAGGAACUGGGCAUUCACUUUGAAUUCAGGAGGGGGCAGCCCGUUUUUAAUCGCUGAGGUUUUUUUUUCUUCAAUACUCUUGAACAGGUGUUUAACAGCUCGAGAGAUGAUGCCCUGCAACAGAGGAUUGAGCAUCA
B5: 32340806_32341209_1091_CDS_ENSG00000021574_ENST00000315285|human|control|control (ssRNA)
RNA: GGGAGUUCUACAGUCCGACGAUCAUCAAAUUUAACAGCUGUUCCAUUGUCCACAAUUUCAUUCAUUAUAAGGUUAGCAAGGUUGCUGUCCACAUUCCUAAAAUUCUUCAAGUCUUUUUUCUUACGAGUAGCAGUUGUAGGGGUCAACAGAGGAUUGAGCAUCA
B6: chr7:23239867:23239868:+_ENSG00000136243_ENST00000258742|hu_hu|motif|central (ssRNA)
RNA: GGGAGUUCUACAGUCCGACGAUCCCCAAAACCAGCAGGGCUUCCAGAAGAGGCAGCAGCAAAUCCAGAGUUUGUUUUAAAACGGAAGUUCUGAGCAUUAUCACUGCUGCUGUUAUUGACUGGAAAGCCUGGCGACAUAAAUGUCAACAGAGGAUUGAGCAUCA
B7: chr11:29607782:29607783:+_ENSMUSG00000020458_ENSMUST00000102843|mus_mus|FALSE|FALSE (ssRNA)
RNA: GGGAGUUCUACAGUCCGACGAUCUGCAUUAAAACUUUCAGGCUCUUUAAUUUCUUCCUUUGAGUCCGAUGUUUUUAGUGCUACACUCAUGGCUUCUUCAUAUGGUGGGGGAUUUUCAGGCUCAAGCUUUAUACCGUCAUAACUCAACAGAGGAUUGAGCAUCA
B8: chr6:31700055:31700056:-_ENSG00000213719_ENST00000375779|hu_mus|FALSE|FALSE (ssRNA)
RNA: GGGAGUUCUACAGUCCGACGAUCUCCACGGAAUGCCUCUGGGAUGGUGAAGCCUCUGUACUUUUUGCACACCACCUGUACUAUGUGAAGCUUUGGCAGCAGGUUGCAGUCAGCCAGGGUGAGCUCAUUGCCGUCCAGAAACUUCAACAGAGGAUUGAGCAUCA
B9: chr12:42180722:42180723:-_ENSMUSG00000036295_ENSMUST00000043884|mus_hu|mus_mus_mus_hu_True|48_58 (ssRNA)
RNA: GGGAGUUCUACAGUCCGACGAUCCUGUAGGAGAAGAAUCUGUGUGUUAGCUGGCAAUCUGGCUGGGAAAGUUAAAAGCCCUAAAUCAUUACAGUCCACUGUAGAUGCUUCCAUAUAAAUGGAUCUGGGUGUAAACCAAGGCCUCAACAGAGGAUUGAGCAUCA
B10: chr1:109605286:109605287:-_ENSG00000197780_ENST00000461096|hu_mus|hu_hu_hu_mus_True|38_108 (ssRNA)
RNA: GGGAGUUCUACAGUCCGACGAUCAAGAACAAUAACAACAUUCAGUAACCUCUUUAAAUGCAAUUAUCCUUAUUAUAAGCUAAGCAGAAUAAUAAUUUAAUACAUAGAGUGAACUACACACAAAGCCUGAACCGCGAAAAUGGUCAACAGAGGAUUGAGCAUCA
B11: 103707702_103709362_1908_CDS_ENSMUSG00000034187_ENSMUST00000103075|mouse|control|control (ssRNA)
RNA: GGGAGUUCUACAGUCCGACGAUCUUUCAGUAACACAAGAAGAGCCUGCAAUACCAGGUUGGAGAACCGGGGACCAAUGGGGACAUAAUCGAGCAGCCUCUCAAUGUCAUCCACGACCACACAGCUGAGCUGAGAUUUGUAAGCCAACAGAGGAUUGAGCAUCA
B12: chr14:89338683:89338684:+_ENSG00000165533_ENST00000346301|hu_hu|hu_hu_hu_mus_False|48_98 (ssRNA)
RNA: GGGAGUUCUACAGUCCGACGAUCGUGGUUGUUGUGGACCAGAGCCAGCCUGAAGCAUUGGUGGGCCAAGUUUGUAUCUCCGAUUCCCACAGCUACAUGCCCCAGGUUGUACCAGACAUCAGCUGCCUCUUCUUCAUUUUCAGCCAACAGAGGAUUGAGCAUCA
B13: 15870588_15872871_243_3pUTR_ENSG00000182287_ENST00000329235|human|control|control (ssRNA)
RNA: GGGAGUUCUACAGUCCGACGAUCACAUACCAUUUUUGCAGUCGAAGCUUUCCCUGACGACUAAAAAGCAACAUAAACUGCAUGGCGGCCGCGGGCCGCGGGCGCGGCGGAGCUUGGCCGGCGGCGGCGGCGGCGGCGAAGGGGCAACAGAGGAUUGAGCAUCA
B14: chr9:122289238:122289239:+_ENSMUSG00000032540_ENSMUST00000156520|mus_mus|FALSE|FALSE (ssRNA)
RNA: GGGAGUUCUACAGUCCGACGAUCUCCUGUCUUUUACAUCAAAACCUAACCCUUUCGUUCCAUUUCAAAAUGAAAUAUUCUAAACUCCAUCUCAAAAAUGAAGUAUUCUAAAUUGAAAUCUUUUUACAUAAAAAUACUUGGGUUCAACAGAGGAUUGAGCAUCA

For the experiment, the target named is T1, UNK ZnF1-3. Put plainly: nsRBNS (natural sequence RNA bind-n-seq); RBNS binding buffer (assumed for nsRBNS): 25 mM Tris pH 7.5, 150 mM KCl, 3 mM MgCl2, 0.01% Triton X-100, 500 ug/ml BSA, 20 U/ml SUPERase-In, 4 C; UNK is unkempt and MSI1 is Musashi-1; names of the RNAs are library labels; protein concentration not given here; high values mean tight binding.
As to B1, the binding signal turned out to be 0.561 enrichment R.

The molecule B2 returned a binding signal of 1.43 enrichment R.

The molecule B3 came in with a binding signal of 1.03 enrichment R.

On to B4, for which the binding signal was found to be 1.76 enrichment R.

Molecule B5 showed a binding signal of 1.24 enrichment R.

With B6, the binding signal amounted to 1.3 enrichment R.

The molecule B7 had a binding signal of 0.56 enrichment R.

Molecule B8 returned a binding signal of 0.795 enrichment R.

With B9, the binding signal came to 1.12 enrichment R.

As for B10, the binding signal came to 1 enrichment R.

Molecule B11 showed a binding signal of 1.32 enrichment R.

B12: the binding signal worked out at 0.7 enrichment R.

In turn, B13 yielded a binding signal of 0.531 enrichment R.

As for B14, the binding signal stood at 1.2 enrichment R.
